In PMC10726135 one finds binding signal (log2 normalized intensity) data, which are given here for 72 sequences.

The other results are listed elsewhere or left out. At the low end of the ranking the order means little. The protein was read in a cell extract, so binding may be indirect.

This assay addresses T1, HNF4alpha8 (COS-7 nuclear extract) (UniProt P41235-5).
T1 sequence: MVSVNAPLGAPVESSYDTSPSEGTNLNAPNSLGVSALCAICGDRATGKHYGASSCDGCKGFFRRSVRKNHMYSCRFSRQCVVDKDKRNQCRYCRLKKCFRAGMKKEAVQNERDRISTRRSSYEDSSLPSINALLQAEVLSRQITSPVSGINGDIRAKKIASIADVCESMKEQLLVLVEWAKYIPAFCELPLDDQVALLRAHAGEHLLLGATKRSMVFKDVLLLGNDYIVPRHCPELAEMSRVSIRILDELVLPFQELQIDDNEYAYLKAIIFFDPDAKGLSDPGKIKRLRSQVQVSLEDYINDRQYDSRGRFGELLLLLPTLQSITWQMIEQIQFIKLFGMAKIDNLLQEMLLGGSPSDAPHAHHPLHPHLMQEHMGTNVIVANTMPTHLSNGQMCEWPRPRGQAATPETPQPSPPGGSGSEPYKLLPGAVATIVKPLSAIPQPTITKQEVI
Description: protein-binding microarray. The settings on record: COS-7 nuclear extract on double-stranded Agilent 4x180k PBM; binding buffer, salt, pH and temperature not given; high values mean tight binding; double strand, one strand shown; sequences stand for … in …GCCTAGGGAGATTAGAGTATCGGTCGA
Turning to GGCTGTTTCACAAGTTTAGCCAAGCAAACA, the binding signal (log2 normalized intensity) was -1.21.
Turning to GGGGTAAGCAAGGCTCTTAGCAGAAGCCCT, the binding signal (log2 normalized intensity) is -1.43.
As to ATAATGTCAAAAATCTTAAGGAGGAGTGCT, the binding signal (log2 normalized intensity) was -1.35.
The result for TAGAACTCAGTGTGAACTCAATGCTGCTGA reads -1.4; that for AGAATTACAAACAGCCCTGACATTCTTGAG, -1.09.
As to TCCCCACGTGGCAATCATTCTGTCTGCCTT, the binding signal (log2 normalized intensity) was -0.77.
The result for CATTGCCACACTATTTACACAGCTGATGGA reads -1.28.
Turning to AGGCCAAACAAAAATATGGACTTTGGAATT, the binding signal (log2 normalized intensity) is 8.4.
As for CTCCAGAGTCCAAACTGGGACCTGTGACAC, the figure is 1.35; as for TATCTCCTCTGTAGGGCAGCAGCCGGCCTC, -1.28.
Take CTGAATCTCCCAGTGCTTTGATCTTCAACT: the binding signal (log2 normalized intensity) was determined as 0.419.
As for ATTATCTTTATTATCCCAGTAGAGAAACAA, the figure is 0.637.
In the case of GCAAGGCATGGTGCTTCGCACTTCAGCACC, the binding signal (log2 normalized intensity) is 1.86.
As for TTTCCCAACAGGTGTTAAAATAACGACCTT, the figure is 2.41; as for CCACACTGGTAACCTTTAGTCTCCAGATAA, 2.95.
As for AAGGTGGAACTCAAGATAGTTCAGCCATCA, the binding signal (log2 normalized intensity) was -1.39.
The result for CAGCTTGATAATCCCCATGGGACCAATACA reads -1.16; that for TTTGCACTTGTTTTTTCAGGTGTTGCTCTC, 1.51.
As for GTCCTACAGGACATTAATCAGTCGCGTATC, the figure is -1.19.
The result for TCGGGATTATGGTAGGCAGCCTCTGAGATG reads -1.42; that for TTGACCGCTGCCTCCCACCCCCACGGTGCG, 5.08; that for CATGGTGACTCTAGTCAATGTATTTTATTC, 1.11.
Turning to CTGGCTTCCCTTTGATCTTTCCCTTCCTGG, the binding signal (log2 normalized intensity) is 1.4.
For the sequence AGTAACAGGGCACATGTACACAGGAATATC, the binding signal (log2 normalized intensity) is -1.27.
As for TTTAGGGTAGCCTGGGTTAAAGTCCGTTAC, the binding signal (log2 normalized intensity) worked out at 5.51.
Regarding CCCGTGTGGCCGCGAGCACCGCGCGCGCAA, the binding signal (log2 normalized intensity) is -1.18.
As for CACACTGGGAATTGGGATGGCAGCTTCATT, the figure is -1.29; as for ACCCAGTCTTAGGGACTAAGCTTGTAGACC, -1.27; as for CAAAACTGGAAATTCACGTCATTTTGTCAC, 0.672.
The result for AATCCCTTAGGCTTTTGCACTTTACTCAGA reads 3.94; that for TGTCACACTGGCCTTTGCCCTCGCTGGCGG, 5.25; that for GAATGGCCAGAGTTCCTGTGCAAGCCCCTG, -0.986.
As for GCTGATGGGACCAAAGGTGAAGGGGTCACC, the figure is 4.33; as for TGAAACTCAGCATACAATGAATATTCAGAC, -1.24; as for TGGGGCAGGGAAATATGTTCCACCCAGGGT, -1.13.
For the sequence TAACCTTCTGCTGGATGCCCAGGGATTCCT, the binding signal (log2 normalized intensity) is -1.27.
Turning to GTTGAACCTCTGTCCTTGGCCTCACAGACA, the binding signal (log2 normalized intensity) was -1.01.
As for TTATCCCTCACAATCTTAAGATAAGGTCTT, the figure is 0.934; as for GATGTTTAGCTATCAGTGTTGACCTCTGGA, 6.06.
For CTTGCCCAAGGGCATGGGAAGCAGTGAGGG, the binding signal (log2 normalized intensity) is -1.36.
The result for AAGGAAACTGCTTGGGCCCCTCCCTCACAC reads 2.16.
As for CTGAATGAGCTCTGGGGTCCTCTGCTGCCC, the figure is 1.32; as for CAACGGTGAGTCAAGCACTTCTCACATCAC, -1.39.
As for GATAGGCAAAGTGGCTAGGACCTTTGAACC, the figure is 7.23.
For TTCCTCCCACTCTGACATCCCCCTTTCTCT, the binding signal (log2 normalized intensity) stood at 3.43.
The result for CCCCCATTTGGTAATGGGCCCCCATTACCA reads 3.9; that for GATTAAAAGCACATAAGAGAAAAATCTTCA, -1.27; that for TCATTTCTGCTTGCAACCAAAGGAGTCCTG, -0.447.
Turning to TATTTTAAGTTGCAATGCATGCTGCCAAAC, the binding signal (log2 normalized intensity) was -1.41.
Turning to CCATCCTCCCACCTCAGCCTCTTGAGTAGC, the binding signal (log2 normalized intensity) was 1.58.
Regarding ACTTGGCTCACATGATTGTGGAGGATGGGA, the binding signal (log2 normalized intensity) was 0.476.
Take AAGGGTCAGCCTGCAAGTTAGGACAGCCCC: the binding signal (log2 normalized intensity) stood at 1.53.
Consider TAAAAGGTAACATCAAAGCCAGGACTTCTA, for which the binding signal (log2 normalized intensity) was -1.29.
As to ACAGCAGGCTCACAAGATTGCATTCTTTGA, the binding signal (log2 normalized intensity) was -1.38.
Consider CAAGCTGACAAACATGTATCAGTGATAGAC, for which the binding signal (log2 normalized intensity) is -0.0274.
The result for CTAAAGGAAGGGAGGTGAGTGCTAGCATTG reads -1.23.
Take CTCTCCTATTCAGGTATTTGCTCTGTGATA: the binding signal (log2 normalized intensity) was 1.2.
As for CTGTTCGATGTATACAGTATCTATAGTTAT, the binding signal (log2 normalized intensity) is 1.1.
As for GTCTTGAGCGCAAATGATCAAAGGTCGGTT, the binding signal (log2 normalized intensity) was 6.58.
In the case of TTCAGTCTTTGTCTTAGCCTGCTCTTTTCC, the binding signal (log2 normalized intensity) worked out at 1.12.
The result for CTGCTTCCAAAACATTGTAGAATTATCCAG reads -0.813; that for ATCTTAGCTTCAGCTTTGCTTAGACCGGCA, -1.21.
In the case of CAAAGGTTGGACTGAGGACCACATGAGTAA, the binding signal (log2 normalized intensity) is 0.766.
The result for GGTGGTTTGGGTAATAACATGTAATTGCAT reads 0.771.
In the case of GTACATTGCACCCTCCAGGAGCCCCTTACC, the binding signal (log2 normalized intensity) was determined as 2.01.
The result for TCTAATGAACTGATTAGAACATTAAGTCCA reads 1.5; that for CTTATCCAAAGCTGCTGGGAGGTAGCTCAA, -1.12; that for TCCTGGGAGAACAAACCTTATCTCTCAAGG, -1.24.
As for GCTAGAGAAAAAGAAAAGCCTTGTGGCAGT, the figure is -1.26; as for CCTTGTTCTCAGAGATCAAAGGTGAGTGGG, 4.22.
As for GGCGTCTTATCAGCCCCCATGTCAGGGAAG, the figure is 2.78; as for CAAAGTACATATTTACTTACCTTTTCTAAT, 0.989.
